No constants are given. Whether binding was seen depends on the method and setting. Binding seen in cells or lysates may run through a third protein. Some results given as binding are weak or reduced against the parent protein; the word gives no strength.
B1: Nub–Msb3_(71-100) (peptide, UniProt P48566 71-100)
chain: GQASPSEHDGNLSVIDLYGDEVESQRAEGE
B2: Nub–Msb4_(21-50) (peptide, UniProt Q12317 21-50)
chain: DTVSSFNEDDANYSVLDLYDDDDEGDDSST
B3: Nub–Msb3_(D86A) (protein, UniProt P48566 1-633)
chain: MQNDQQRFSLQNRTVLAHPYKRLGGAFTVKSPSVPNFHDKMHSDHSSSDSALVNGSFRANDHRSVEPSCLGQASPSEHDGNLSVIALYGDEVESQRAEGEDDDDNNGDNGNEDLEEVHSDDLDLVPDDDNRQRVELEGAASATSANSNGINNTHFDRYGFKKQNNYISEAEYDKWWVEYSQYCVRRKHKWQLLLEKSGLPVTDDSPSRFPSKSERLKRYVRKGIPAEWRGNAWWHFARGQEKLNKNKGVYSQLLRKMKQIKKQNPNEKQVQDLDIIERDLNRTFPDNIHFQSSLHNKEGPPIIKSLRRVLVAFSLYNPKIGYCQSMNFLAGLLLLFLDEERAFWMLVIITSRYLPGVHNINLEGVNIDQGVLMLCVKEYIPEVWSYIKPSIDHHQKNNKTFSPSNKKVLFNMQKNEFLYRLPPITLCTASWFMSCFVGVVPIETTLRIWDCLFYEESHFLFKVSLAVLKLSEHDLSKIKPRNNSLNYSWGSNLNQRGGSMGQEDSDMEIFQVIQTFPKTLLNPNEIFEKIIFKRRFNLNRLDQDEIDRCRKFVAAQRLKFKTYGELLGNSTSEADLPINDNTDNKGIHITSDAVNEALSSEVYGFKKSLAGVHWNNSIKEKVKQMRKKKDKGD
B4: Nub–Msb3_(L82Y) (protein, UniProt P48566 1-633)
chain: MQNDQQRFSLQNRTVLAHPYKRLGGAFTVKSPSVPNFHDKMHSDHSSSDSALVNGSFRANDHRSVEPSCLGQASPSEHDGNYSVIDLYGDEVESQRAEGEDDDDNNGDNGNEDLEEVHSDDLDLVPDDDNRQRVELEGAASATSANSNGINNTHFDRYGFKKQNNYISEAEYDKWWVEYSQYCVRRKHKWQLLLEKSGLPVTDDSPSRFPSKSERLKRYVRKGIPAEWRGNAWWHFARGQEKLNKNKGVYSQLLRKMKQIKKQNPNEKQVQDLDIIERDLNRTFPDNIHFQSSLHNKEGPPIIKSLRRVLVAFSLYNPKIGYCQSMNFLAGLLLLFLDEERAFWMLVIITSRYLPGVHNINLEGVNIDQGVLMLCVKEYIPEVWSYIKPSIDHHQKNNKTFSPSNKKVLFNMQKNEFLYRLPPITLCTASWFMSCFVGVVPIETTLRIWDCLFYEESHFLFKVSLAVLKLSEHDLSKIKPRNNSLNYSWGSNLNQRGGSMGQEDSDMEIFQVIQTFPKTLLNPNEIFEKIIFKRRFNLNRLDQDEIDRCRKFVAAQRLKFKTYGELLGNSTSEADLPINDNTDNKGIHITSDAVNEALSSEVYGFKKSLAGVHWNNSIKEKVKQMRKKKDKGD
B5: Nub–Msb3_(L87A) (protein, UniProt P48566 1-633)
chain: MQNDQQRFSLQNRTVLAHPYKRLGGAFTVKSPSVPNFHDKMHSDHSSSDSALVNGSFRANDHRSVEPSCLGQASPSEHDGNLSVIDAYGDEVESQRAEGEDDDDNNGDNGNEDLEEVHSDDLDLVPDDDNRQRVELEGAASATSANSNGINNTHFDRYGFKKQNNYISEAEYDKWWVEYSQYCVRRKHKWQLLLEKSGLPVTDDSPSRFPSKSERLKRYVRKGIPAEWRGNAWWHFARGQEKLNKNKGVYSQLLRKMKQIKKQNPNEKQVQDLDIIERDLNRTFPDNIHFQSSLHNKEGPPIIKSLRRVLVAFSLYNPKIGYCQSMNFLAGLLLLFLDEERAFWMLVIITSRYLPGVHNINLEGVNIDQGVLMLCVKEYIPEVWSYIKPSIDHHQKNNKTFSPSNKKVLFNMQKNEFLYRLPPITLCTASWFMSCFVGVVPIETTLRIWDCLFYEESHFLFKVSLAVLKLSEHDLSKIKPRNNSLNYSWGSNLNQRGGSMGQEDSDMEIFQVIQTFPKTLLNPNEIFEKIIFKRRFNLNRLDQDEIDRCRKFVAAQRLKFKTYGELLGNSTSEADLPINDNTDNKGIHITSDAVNEALSSEVYGFKKSLAGVHWNNSIKEKVKQMRKKKDKGD
B6: Nub–Msb3_(Δ84-88) (protein, UniProt P48566)
chain: MQNDQQRFSLQNRTVLAHPYKRLGGAFTVKSPSVPNFHDKMHSDHSSSDSALVNGSFRANDHRSVEPSCLGQASPSEHDGNLSGDEVESQRAEGEDDDDNNGDNGNEDLEEVHSDDLDLVPDDDNRQRVELEGAASATSANSNGINNTHFDRYGFKKQNNYISEAEYDKWWVEYSQYCVRRKHKWQLLLEKSGLPVTDDSPSRFPSKSERLKRYVRKGIPAEWRGNAWWHFARGQEKLNKNKGVYSQLLRKMKQIKKQNPNEKQVQDLDIIERDLNRTFPDNIHFQSSLHNKEGPPIIKSLRRVLVAFSLYNPKIGYCQSMNFLAGLLLLFLDEERAFWMLVIITSRYLPGVHNINLEGVNIDQGVLMLCVKEYIPEVWSYIKPSIDHHQKNNKTFSPSNKKVLFNMQKNEFLYRLPPITLCTASWFMSCFVGVVPIETTLRIWDCLFYEESHFLFKVSLAVLKLSEHDLSKIKPRNNSLNYSWGSNLNQRGGSMGQEDSDMEIFQVIQTFPKTLLNPNEIFEKIIFKRRFNLNRLDQDEIDRCRKFVAAQRLKFKTYGELLGNSTSEADLPINDNTDNKGIHITSDAVNEALSSEVYGFKKSLAGVHWNNSIKEKVKQMRKKKDKGD
B7: Nub–Msb4_(Δ35-39) (protein, UniProt Q12317)
chain: MIMSSTMSTEAALVPNESVFDTVSSFNEDDANYSDDDDEGDDSSTVERKEILTTRELEKAKAFTSLIMADPENFDRYGFSKKGYFISQEEYDKWWTEYNRYTERRKKKWENFLLKNKIELHNDNPLVYPARTDELSKFVRKGIPAEWRGNAWWYFAGGQRQLDANVGVYDRLKSDCREGAVSGKDMEAIERDLYRTFPDNIHFHKESFQNGEPAIIRSLRRVLMAFSVYDKTIGYCQSMNFLVGLLLLFMEEEKAFWMLVIITGKYLPGVYESDLEGANVDQGVLVLCIKEYLPEIWSHIESSYMNGNGSTDQISGPASGEEYLCRLPTLTLCTASWFMSCFVGVVPIETTLRIWDCLFYEESHFLFKVALGILKLSESEFLESKSQKLFRQYSSYTFGGSNDSDSTFKRLKNKIKTQEEADMEILQVIQNFPKRLLNPNDIFEKVLMKKKVALNGITQEKIDRGREYVAMARNRQRASSRPKERRK
B8: Nub–Ste7_(100-135) (peptide, UniProt P06784 100-135)
chain: SSLSQSPCVSSSSSLSTPCIIDAYSNNFGLSPSSTN
B9: Nub–Msb3_(V84A) (protein, UniProt P48566 1-633)
chain: MQNDQQRFSLQNRTVLAHPYKRLGGAFTVKSPSVPNFHDKMHSDHSSSDSALVNGSFRANDHRSVEPSCLGQASPSEHDGNLSAIDLYGDEVESQRAEGEDDDDNNGDNGNEDLEEVHSDDLDLVPDDDNRQRVELEGAASATSANSNGINNTHFDRYGFKKQNNYISEAEYDKWWVEYSQYCVRRKHKWQLLLEKSGLPVTDDSPSRFPSKSERLKRYVRKGIPAEWRGNAWWHFARGQEKLNKNKGVYSQLLRKMKQIKKQNPNEKQVQDLDIIERDLNRTFPDNIHFQSSLHNKEGPPIIKSLRRVLVAFSLYNPKIGYCQSMNFLAGLLLLFLDEERAFWMLVIITSRYLPGVHNINLEGVNIDQGVLMLCVKEYIPEVWSYIKPSIDHHQKNNKTFSPSNKKVLFNMQKNEFLYRLPPITLCTASWFMSCFVGVVPIETTLRIWDCLFYEESHFLFKVSLAVLKLSEHDLSKIKPRNNSLNYSWGSNLNQRGGSMGQEDSDMEIFQVIQTFPKTLLNPNEIFEKIIFKRRFNLNRLDQDEIDRCRKFVAAQRLKFKTYGELLGNSTSEADLPINDNTDNKGIHITSDAVNEALSSEVYGFKKSLAGVHWNNSIKEKVKQMRKKKDKGD

Chains of the proteins cited; added tags and fusions are not shown. Residues count along the entry.
UniProt P23201, residues 1-124: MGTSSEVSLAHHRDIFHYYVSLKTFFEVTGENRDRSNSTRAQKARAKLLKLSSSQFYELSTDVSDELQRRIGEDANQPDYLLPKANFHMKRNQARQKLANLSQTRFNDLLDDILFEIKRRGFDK

Biological target: SHD1CRU (Saccharomyces cerevisiae) (UniProt P23201)
Assay: split reporter; small-scale Split-Ub: diploid cells co-expressing a Nub and a CRU fusion spotted in 10-fold serial dilutions from OD600=1 on SD medium with 5-FOA, 30°C, 2-5 days

Binder	binding
B1	binds
B2	binds
B3	binds
B4	binds
B5	binds
B6	no binding
B7	no binding
B8	no binding
B9	no binding
